Results from PubChem BioAssay AID504845 (National Center for Advancing Translational Sciences (NCATS), 2011).
“And” between values parts separate entries of the source, which are not always exact repeats. Equal entries are not always repeated. About 150 (0.038%) of roughly 390,000 compounds were called active. The inconclusive results got no clear call from the source; some entries with a clear call stand among them for comparison. Calls follow the shape of the dose curve; as a rule, active = well fitted inhibition curve with a large enough effect; inconclusive = small, poorly fitted or top-dose-only effect; inactive = no such curve, though single readings can be large or run the other way. Potencies of inconclusive entries are doubtful fits and often do not repeat.

What follows are compounds tested against Regulator of G-protein signaling 4 (Homo sapiens) (UniProt P49798) (assay: Inhibitors of Regulator of G Protein Signaling (RGS) 4: qHTS). Conditions: Transcreener GDP fluorescence polarization, RGS4-accelerated GTP hydrolysis; series mostly up to 114 µM.
UniProt P49798, sequence (P49798 whole entry, looked up): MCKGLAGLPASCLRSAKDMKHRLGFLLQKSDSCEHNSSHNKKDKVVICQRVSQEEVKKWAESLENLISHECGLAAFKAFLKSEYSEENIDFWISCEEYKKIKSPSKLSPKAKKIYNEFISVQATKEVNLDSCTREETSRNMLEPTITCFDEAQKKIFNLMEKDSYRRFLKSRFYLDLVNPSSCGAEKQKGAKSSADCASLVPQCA
Outline: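 MLSMR compounds (23 nl, pin-transferred) preincubated 10 min at room temperature with a 500nM (2x) first reagent, then RGS4 at 900nM (2x) plus Transcreener GDP mix added; fluorescence polarization (620/688 nm) read before and after 90 min at 30 °C.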
Also: nearly all actives have a fitted effect of over 75% in size.
Potency is read from the fitted curve at half-maximal effect; tags tell the direction and shape of the fitted curve.

SMILES | Potency
COc1ccc(CNS(=O)(=O)c2ccc(N3CCCC3)cc2Br)cc1 | inconclusive: 79.4 µM [inhibitor, single point]
Cc1ccc(-c2nc(C)sc2CC(=O)NCc2ccco2)cc1 | inactive
Cc1nn(CCC(=O)NCc2cccc(Br)c2)c(=O)c2nn(-c3ccccc3)c(C)c12 | inactive
COc1ccc([C@H]2CC(=O)C=C(c3ccc(OC)c(OC)c3)C2)cc1 | inactive
O=C(c1ccc2ccccc2c1)C1CCCN(S(=O)(=O)c2cccnc2)C1 (configuration not stated) | inactive
Cc1ccc(S(=O)(=O)N2CCN(c3cc4c(cc3[N+](=O)[O-])n(C)c(=O)n4C)CC2)cc1 | inactive
O=C(CSC1=NS(=O)(=O)c2ccccc21)Nc1ccccc1 | inconclusive: 50.1 µM [inhibitor, partial curve, poor fit]
C=CCn1c(SCC(=O)NNC(=S)Nc2ccccc2)nnc1-c1ccccc1 | inconclusive: 79.4 µM [inhibitor, single point]
O=C(O)/C=C/C(=O)Nc1ccc(Cl)c(C(=O)O)c1 | inactive
O=C(Nc1cccnc1Cl)c1cc(-c2ccc(O)cc2)on1 | inactive
CC(C)C(=O)N(c1ccc2oc(=O)sc2c1)S(=O)(=O)c1ccccc1 | inconclusive: 39.8 µM [inhibitor, partial curve, poor fit]
CC(C)(C)Nc1nc(NN)nc(NC(C)(C)C)n1 | inactive
O=C(O)CCC(=O)N1CCN(c2ccc(C(=O)c3ccc(F)cc3)cc2)CC1 | inconclusive: 89.1 µM [inhibitor, single point]
CCCc1nnc(NC(=O)CSc2nc3ccccc3[nH]2)s1 | inconclusive: 100 µM [inhibitor, partial curve, poor fit]
Cc1ccc(NC(=S)NNS(=O)(=O)c2ccc3ccccc3c2)cc1Cl | inconclusive: 79.4 µM [inhibitor, partial curve, poor fit]
COc1ccccc1OCCNC(=O)c1cc(SC)ccc1Cl | inconclusive: 89.1 µM [inhibitor, single point]
O=C(Nc1ccc(S(=O)(=O)Nc2cnc3ccccc3n2)cc1)c1ccc(F)cc1 | inconclusive: 70.8 µM [inhibitor, partial curve, poor fit]
O=C1Nc2ccccc2C1=Nc1ccc2[nH]c3ccccc3c2c1 | inconclusive: 89.1 µM [inhibitor, single point]
C[C@H](CO)N1C[C@H](C)[C@@H](CN(C)Cc2ccc(-c3ccccc3)cc2)Oc2c(NC(=O)c3ccncc3)cccc2C1=O | inactive
CC(C)c1cc2c(c(O)c1O)[C@@]13CCCC(C)(C)C1CC2OC3=O (some centres not stated) | inconclusive: 44.7 µM [inhibitor, partial curve, poor fit]
CCOC(=O)c1cccc(NC(=O)Nc2ccc3c(c2)N(C)C(=O)c2ccccc2S3)c1 | inactive
CC(=O)Nc1sc(N/N=C\c2ccccc2)nc1-c1cccs1 | inconclusive: 50.1 µM [inhibitor, partial curve, poor fit]
Cc1cc(C)cc(NC(=S)Nc2cccc3cnccc23)c1 | inconclusive: 56.2 µM [inhibitor, partial curve, poor fit]

SMILES | Potency
CN(C)CCCn1cc(C2=C(c3c[nH]c4ccccc34)C(=O)NC2=O)c2ccccc21 | inconclusive: 0.006 µM [inhibitor, full curve, poor fit]
O=C(CNC(=O)c1cccc([N+](=O)[O-])c1)NC1CCCc2ccccc21 (configuration not stated) | inconclusive: 50.1 µM [inhibitor, partial curve, poor fit]
CCCC[C@@H](CNC)NC[C@H](Cc1ccc(O)cc1)NCCc1ccc(OCC)cc1 | inactive
Cc1ccc(-n2c(-c3ccncc3)n[nH]c2=S)cc1C | inconclusive: 89.1 µM [inhibitor, single point]
CN1C2C=C3C(C#N)=C(N)C(C#N)(C#N)[C@@H](c4cccc(F)c4)[C@@H]3C1CC2 (some centres not stated) | inconclusive: 100 µM [inhibitor, single point]
COc1ccccc1C(=O)NCCC(=O)Nc1ccncc1 | inactive
COc1ccc(OC(C)C(=O)NCCC2=CCCCC2)cc1 (configuration not stated) | inactive
C=CCNCCCCOc1c(Cl)cc(C)cc1Br | inactive
O=C(NCc1cccs1)C1CCN(c2nc3ccccc3o2)CC1 | inactive
CCOc1ccc(-n2nnnc2SCC(=O)c2ccccc2)cc1 | inconclusive: 79.4 µM [inhibitor, partial curve, poor fit]
COc1ccccc1N1CCN(Cc2nc3ccccc3c(=O)n2CC(C)=O)CC1 | inconclusive: 89.1 µM [inhibitor, single point]
CCc1ccccc1NC(=S)NC1CC2CCC(C1)N2Cc1ccco1 (configuration not stated) | inactive
Cc1ccc(-c2nc3c(c(=O)[nH]c(=O)n3Cc3ccccc3)n2C)o1 | inconclusive: 44.7 µM [inhibitor, partial curve, poor fit]
NNC(=O)c1ccc(N2CCc3ccccc32)c([N+](=O)[O-])c1 | inconclusive: 89.1 µM [inhibitor, single point]
Cc1cc(Nc2c(C)n(C)n(-c3ccccc3)c2=O)n2c(nc3ccccc32)c1C#N | inactive
Cc1csc(NC(=O)c2ccc(S(=O)(=O)N(C)c3ccccc3)cc2)n1 | inconclusive: 89.1 µM [inhibitor, single point]
O=S1(=O)c2ccc(Br)cc2OC(COCc2ccccc2)CN1Cc1ccccc1 (configuration not stated) | inconclusive: 100 µM [inhibitor, partial curve, poor fit]
CC(Oc1ccccc1)C(=O)N1CCC2(CC1)Oc1ccc(F)cc1C(=O)C21CC(c2ccccc2)=NO1 (configuration not stated) | inconclusive: 39.8 µM [inhibitor, partial curve, poor fit]
CCOC(=O)c1ccc(NC(=O)N2CCN(c3ccccn3)CC2)cc1 | inactive
CCOC(=O)c1ccc(/C=C2/C=C(c3ccccc3)N(c3ccc(Cl)c(C(=O)O)c3)C2=O)cc1 | inconclusive: 17.8 µM [inhibitor, full curve, poor fit]
Cc1ccc(-c2nc(C(=O)NC3CCCCCC3)no2)cc1 | inconclusive: 35.5 µM [inhibitor, full curve, poor fit]
C=C(CN(C)C)C(=O)c1cc(OC)c(OC)cc1OC | inconclusive: 50.1 µM [inhibitor, partial curve, poor fit]
COc1cc(/C=N/NC(=O)C(=O)NCc2cccnc2)ccc1O | inconclusive: 17.8 µM [inhibitor, full curve, poor fit]

SMILES | Potency
O=C1C=CC(=Nc2ccc3c(c2)Cc2cc(F)ccc2-3)O1 | inconclusive: 79.4 µM [inhibitor, partial curve, poor fit]
Cc1cc2ccccn2c1C(=O)c1ccccc1Br | inactive
Cc1csc(N/N=C/c2ccc(O)c([N+](=O)[O-])c2)n1 | inconclusive: 100 µM [inhibitor, partial curve, poor fit]
Oc1cc2c(c(Cl)c1O)CCNCC2c1ccccc1 (configuration not stated) | inconclusive: 23.8 µM [inhibitor, partial curve, poor fit] and inconclusive: 11.9 µM [inhibitor, partial curve]
COC(=O)c1ccc(NC(=O)CSc2nc3c(c(=O)n(C)c(=O)n3C)n2Cc2ccccc2)cc1 | inconclusive: 50.1 µM [inhibitor, partial curve, poor fit]
O=C(CSc1nnc(C2CC2)n1Cc1ccccc1)c1cc2ccccc2o1 | inconclusive: 25.1 µM [inhibitor, full curve, poor fit]
CCCC(O)(CCC)C(=O)NN1CCCCC1 | inconclusive: 70.8 µM [inhibitor, partial curve, poor fit]
CCOc1ccc(OCc2ccc(C(=O)N3CCOCC3)cc2)cc1 | inconclusive: 79.4 µM [inhibitor, single point]
COC(=O)Cn1cc(/C=C/[N+](=O)[O-])c2ccccc21 | inconclusive: 17.8 µM [inhibitor, full curve, poor fit]
CC1=NOC(=O)/C1=C/c1ccc2c(c1)OCO2 | inconclusive: 20 µM [inhibitor, full curve, poor fit]
COc1ccccc1NC(=O)c1ccc(NC(=O)c2cc3c(s2)CCC3)cc1 | inconclusive: 70.8 µM [inhibitor, single point]
CCOC(=O)c1c(NC(=S)Nc2ccc(Cl)cc2)sc2c1CCN(C)C2 | inconclusive: 79.4 µM [inhibitor, partial curve, poor fit]
COc1cccc2cc(/C(C)=N/Nc3nc(-c4cc(C)ccc4C)cs3)c(=O)oc12 | inconclusive: 89.1 µM [inhibitor, partial curve, poor fit]
CC(C)c1ccc(NC(=O)CN2C=NS(=O)(=O)c3ccccc32)cc1 | inactive
Cc1ccc(N2C(N)=NC(N)=NC23CCCC3)c(C)c1 | inactive
CCC(=O)C1=C(c2ccc(F)cc2)N(C(=O)CC)n2c(nnc2C2CCCCC2)S1 | inactive
O=C(CN1CCc2ccccc21)NC(=O)NCc1ccccc1 | inconclusive: 50.1 µM [inhibitor, partial curve, poor fit]
CC(=O)N(c1ccc2oc(=O)sc2c1)S(=O)(=O)c1ccc(C)cc1 | inconclusive: 79.4 µM [inhibitor, partial curve, poor fit]
CC(C)CCOP(=O)(c1ccc(N(C)C)cc1)C(O)c1c(Cl)cccc1Cl (configuration not stated) | inactive
CC(=O)N1CCCc2ccc(NC(=O)c3ccc(C(F)(F)F)cc3)cc21 | inactive
Cc1ccccc1CS(=O)(=O)c1ncc(Cl)c(C(=O)Nc2nnc(C(C)C)s2)n1 | inactive
